Laboratory results as given in patent US20160106837A1, “COMBINATION OF CD37 ANTIBODIES WITH CHLORAMBUCIL” (BOEHRINGER INGELHEIM INTERNATIONAL GMBH, priority 2013, published 2016).
Entries after “also recorded” stand apart in the source; their conditions may differ. Read-outs that look alike come from different tables or passages of the source.

Legend:
CD37 [1] = biological target: T1, CD37 (Homo sapiens, UniProt P11049); experiment: Binding to human CD37
T1 sequence (P11049 1-281): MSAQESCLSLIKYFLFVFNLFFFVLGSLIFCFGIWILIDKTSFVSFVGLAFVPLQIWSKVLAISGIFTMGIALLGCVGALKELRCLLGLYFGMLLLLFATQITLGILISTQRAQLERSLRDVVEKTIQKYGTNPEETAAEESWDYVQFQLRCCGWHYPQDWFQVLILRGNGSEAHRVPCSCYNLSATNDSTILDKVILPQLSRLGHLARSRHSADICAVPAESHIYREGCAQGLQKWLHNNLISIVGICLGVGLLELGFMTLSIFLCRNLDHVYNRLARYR

mouse CD37 = biological target: T2, mouse CD37 (Mus musculus, UniProt Q61470); experiment: Cross-reactivity with mouse CD37; assay type: binding
T2 sequence (Q61470 1-281): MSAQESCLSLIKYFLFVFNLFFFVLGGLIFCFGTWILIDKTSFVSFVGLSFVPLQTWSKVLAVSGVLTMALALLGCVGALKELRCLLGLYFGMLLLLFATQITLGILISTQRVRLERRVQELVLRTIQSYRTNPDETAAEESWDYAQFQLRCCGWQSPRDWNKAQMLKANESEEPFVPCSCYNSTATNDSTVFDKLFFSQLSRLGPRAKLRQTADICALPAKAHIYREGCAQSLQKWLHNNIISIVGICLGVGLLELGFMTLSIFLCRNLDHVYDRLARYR

[2] = mouse, in vivo
[3] = test system: human follicular lymphoma DOHH2; experiment: Subcutaneous xenograft model of the human follicular lymphoma DOHH2 in C.B-17 scid mice: tumor growth; assay type: in vivo
CD37 [4] = biological target: T1, CD37; settings: from WO2009/019312 or EP 2 132 228 B1; cited from earlier work
CD37 [5] = biological target: T1, CD37; experiment: In vitro apoptosis induction / cytotoxicity with or without IgG cross-linking; assay type: cell-based

B1: antibody A2: mouse-human chimeric Fc-engineered IgG1 antibody to human CD37; heavy chain SEQ ID NO: 5, light chain SEQ ID NO: 6 (antibody)
heavy: AVQLQQSGPELEKPGASVKISCKASGYSFTGYNMNWVKQNNGKSLEWIGNIDPYYGGTTYNRKFKGKATLTVDKSSSTAYMQLKSLTSEDSAVYYCARSVGPMDYWGQGTSVTVSSASTKGPSVFPLAPSSKSTSGGTAALGCLVKDYFPEPVTVSWNSGALTSGVHTFPAVLQSSGLYSLSSVVTVPSSSLGTQTYICNVNHKPSNTKVDKRV[letters of human IgG1 Fc with changes not shown]
light: DIQMTQSPASLSASVGETVTITCRTSENVYSYLAWYQQKQGKSPQLLVSFAKTLAEGVPSRFSGSGSGTQFSLKISSLQPEDSGSYFCQHHSDNPWTFGGGTELEIKRTVAAPSVFIFPPSDEQLKSGTASVVCLLNNFYPREAKVQWKVDNALQSGNSQESVTEQDSKDSTYSLSSTLTLSKADYEKHKVYACEVTHQGLSSPVTKSFNRGEC
modifications: /mol_type=“protein” /note=“Synthetic construct heavy chain A2” /organism=“Artificial Sequence”; /mol_type=“protein” /note=“Synthetic construct light chain A2” /organism=“Artificial Sequence”
CD37 [1]
  binding to human CD37 (in words): specific for human CD37; also recorded: binds specifically to human CD37
CD37 [1]; listed as Antibody A2
  binding to human CD37 (in words): high affinity
Mouse CD37
  binding to mouse CD37 (in words): does not bind to mouse CD37; also recorded: does not cross-react with mouse CD37
Mouse CD37; listed as Antibody A2
  binding to mouse CD37 (in words): does not cross-react with mouse CD37
[2]
  tolerability / body weight course (in words): well tolerated
[3]; day 16
  CR (complete tumor regression): 0 x/7
  PR (partial tumor regression): 0 x/7
  tumor regression (in words): Tumor regressions were not observed
[3]; median, day 16, A2 10 mg/kg i.p. d1,5,8,12,15, chlorambucil 6 mg/kg i.p. d2,6
  TGI: 73%
[3]; vs controls
  tumor growth inhibition (in words): significantly inhibited growth
CD37 [4]
  apoptosis induction, dependence on IgG cross-linking: potent inducer of apoptosis both in the absence and presence of an IgG cross-linking antibody
CD37 [5]
  in vitro cytotoxicity (apoptosis induction, ADCC, tumor cell depletion in whole blood assays): potent
CD37 [5]; absence of IgG cross-linking antibody
  pro-apoptotic activity without IgG cross-linking, single agent and with chlorambucil: exerts its pro-apoptotic activity without the need of an IgG cross-linking antibody
